Measured values as given in PubChem BioAssay AID686971 (National Center for Advancing Translational Sciences (NCATS), 2013).
Screen size: about 360,000 compounds; about 7,500 (2.1%) were called active. The inconclusive results got no clear call from the source; some entries with a clear call stand among them for comparison. Calls follow the shape of the dose curve; as a rule, active = well fitted cell-killing curve with a large enough effect; inconclusive = small, poorly fitted or top-dose-only effect, or effect the other way, or another doubt; inactive = no such curve, though single readings can be large or run the other way. No potency is given beside an inconclusive call; the fits are too rough.

Assay: qHTS for induction of synthetic lethality in tumor cells producing 2HG: qHTS for the HT-1080-IDH1KD cell line;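 as to activity, negative = toxicity: 0% = DMSO wells and -100% = cell-free medium wells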
Settings: HT-1080 IDH1 knockdown viability, ATP luminescence, 48 h; activity, negative = toxicity: at 46.1 µM (top of the series) unless noted
How it was run: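 Luminescent ATP read-out (CellTiter-Glo, 10 min at room temperature) after 48 h compound exposure at 37 °C gave viability of IDH1-knockdown HT-1080 cells. Activity was normalised to DMSO and cell-free wells, then fitted as concentration-response curves.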
Potency is read from the fitted curve at half-maximal effect; tags tell the direction and shape of the fitted curve.

Row | SMILES | activity, negative = toxicity | Potency
1 | O=C(NCCCN1CCOCC1)/C(=C/c1ccc(F)cc1)NC(=O)c1ccccc1 | inactive: 0.202% | –
2 | CCc1ccc(Nc2nc(N)nc(CSc3nnnn3-c3ccccc3)n2)cc1 | – | inconclusive [cytotoxic, single point]
3 | COCCNC(=O)C(=O)Nc1ccc2c(c1)N(S(=O)(=O)c1cccs1)CCC2 | – | active: 6.51 µM
4 | Cc1cc(NCCC(C)C)n2nc(C)c(-c3ccccc3)c2n1 | – | inconclusive [cytotoxic, single point]
5 | OCc1ccccc1OCCOc1ccc(Cl)c2cccnc12 | – | inconclusive [cytotoxic, single point]
6 | COc1ccc(CNC(=O)[C@@H]2CCCN2C(=O)[C@@H]2Cc3ccccc3CN2C(=O)OC(C)(C)C)cc1 | inactive: 7.02% | –
7 | N/C(=N\OC(=O)N1CCOCC1)c1ccccc1 | – | inconclusive [cytotoxic, single point]
8 | Cc1nc(N2CCN(Cc3ccc4c(c3)OCO4)CC2)c2oc3ccccc3c2n1 | – | inconclusive [cytotoxic, partial curve]
9 | O=C1CCCN1CCCNCC(=O)N1c2ccccc2Sc2ccccc21 | inactive: -2.59% | –
10 | Cc1cc(/C=N/NC(=O)Cn2c3ccccc3c(=O)c3ccccc32)c(C)n1-c1ccccc1 | – | inconclusive [cytotoxic, single point]
11 | CCc1cc2c(C)cc(=O)oc2cc1OC(=O)C1CCCN1C(=O)OC(C)(C)C (stereo unspecified) | inactive: 2.71% | –
12 | Cc1nc2ccccc2n1CCc1nc2c3ccccc3nc(SCC(=O)NCc3ccco3)n2n1 | – | inconclusive [cytotoxic, single point]
13 | O=C(N/N=C/c1coc2ccc(Cl)cc2c1=O)c1cc(O)cc(O)c1 | inactive: -7.11% | –
14 | CCN(CC)CCCN(C(=O)c1cccc(C)c1)c1nc(-c2ccc(OC)cc2)cs1 | – | inconclusive [cytotoxic, single point]
15 | COc1cc(NC(=O)CCl)ccc(=O)c1 | – | active: 23.1 µM
16 | CC(C)[C@H](NC(=O)c1c(F)cccc1F)C(=O)OCC(=O)NNC(=O)c1ccccc1 | inactive: -0.133% | –
17 | CCCn1c(N)c(C(=O)CSc2nc3ccccc3s2)c(=O)[nH]c1=O | inconclusive: -35.8% [cytotoxic] | –
18 | COc1cccc(CNC(=O)c2nnn(CC(=O)Nc3cccc(C)c3)c2N)c1 | – | inconclusive [cytotoxic, single point]
19 | COc1ccc(-c2cc(CNc3nc(NC(C)C)nc4cc(-c5ccccc5)sc34)on2)cc1 | – | active: 11.6 µM
20 | N#Cc1c(NC(=O)CSc2ncn[nH]2)sc2c1CCCCC2 | – | inconclusive [cytotoxic, single point]
21 | CCCCCCC[C@@H](C/C=C/CCC(=O)N(C)C/C(=C/Cl)C/C(=C\C(=O)N1CC(OC)=CC1=O)OC)OC | – | active: 9.2 µM
22 | CCCCCCCCCCOC(=O)Cn1c(COc2ccccc2OC)[n+](C)c2ccccc21 | – | active: 20.6 µM
23 | CCCCN(CC)CCCNC(=O)c1cc2c(=O)n(C)c3ccccc3c2n1C | inactive: -20.7% | –
24 | CCCn1nc([N+](=O)[O-])c(C(C#N)c2nc3ccccc3o2)c(Cl)c1=O (stereo unspecified) | – | inconclusive [cytotoxic, partial curve]

Row | SMILES | activity, negative = toxicity | Potency
25 | CSc1nc(SCC(=O)NCc2ccco2)c2c3c(sc2n1)COC(C)(C)C3 | – | active: 7.08 µM
26 | COc1ccc(OC)c(-n2c(-c3ccc(S(C)(=O)=O)cc3)cc(C=O)c2C)c1 | inactive: -26.8% | –
27 | O=C(Nc1cc(-c2nc3ncccc3o2)ccc1Cl)c1ccc([N+](=O)[O-])o1 | – | inconclusive [cytotoxic, single point]
28 | COc1cc2c(O)c3c(c(-c4ccc5c(c4)OCO5)c2cc1OC)C(=O)OC3 | – | active: 2.51 µM
29 | COc1ccccc1N1CCN(C(c2ccccc2Cl)c2nnnn2C(C)(C)C)CC1 (stereo unspecified) | – | inconclusive [cytotoxic, single point]
30 | CCC1CCCCN1CCCNC(=O)c1cc2c(Cl)nc3ccccc3c2s1 (stereo unspecified) | – | inconclusive [cytotoxic, single point]
31 | Clc1ccccc1CNCc1ccc2c(c1)OCO2 | inactive: -5.55% | –
32 | O=C(NCCCO)c1cc2c([nH]c3ccccc32)c(-c2ccc(F)cc2)n1 | – | inconclusive [cytotoxic, single point]
33 | Cc1c(C(=O)NCc2cccc(Cl)c2)sc(=O)n1Cc1cccc(F)c1 | – | inconclusive [cytotoxic, single point]
34 | CCn1c(SCC(=O)Nc2nccs2)nnc1-c1ccc(S(=O)(=O)N2CCCCC2)cc1 | inactive: -11.8% | –
35 | COc1ccc(-c2csc(NC(=O)CSc3nnnn3C)n2)c(OC)c1 | – | inconclusive [cytotoxic, partial curve, poor fit]
36 | CCOC(=O)C1=CC[C@@H](c2ccccc2)N(S(=O)(=O)c2ccc(C)cc2)[C@H]1C=C(C)C | – | inconclusive [cytotoxic, single point]
37 | NNc1nnc(-c2ccccc2)c(-c2ccccc2)n1 | – | inconclusive [cytotoxic, single point]
38 | O=C(OCC(=O)C12CC3CC(CC(C3)C1)C2)c1ccc(O)cc1O | – | active: 18.4 µM
39 | CCCCC(=O)/C=C/n1c(=S)oc2ccccc21 | – | active: 3.66 µM
40 | CCOc1ccc(-n2c(SCC(N)=O)nc3c([nH]c4ccccc43)c2=O)cc1 | – | inconclusive [cytotoxic, single point]
41 | O=C(CCCOc1ccc(Cl)cc1)NCCc1ccccc1 | inactive: 2.56% | –
42 | CCCCOc1ccc(C(=O)CCN2CCOCC2)cc1 | inactive: -16.9% | –
43 | CCOC(=O)c1c(NC(C)=O)sc2c1CCC(C=O)=C2Sc1ccccc1 | – | active: 7.08 µM
44 | Cc1cc(C)c2cc(CN(Cc3cccnc3)C(=O)c3ccc(F)cc3)c(Cl)nc2c1 | – | inconclusive [cytotoxic, single point]
45 | Cc1cccc(C=Nc2ccccc2C(N)=O)c1 | – | active: 7.08 µM
46 | COc1ccc(-c2cnc3c(NC=O)cc(-c4ccc(C(=O)N5CCOCC5)cc4)cn23)cc1OC | – | active: 20.6 µM
47 | CC[C@]12c3[nH]c4cc(CCC(=O)N(C)C)ccc4c3CCN1C(=O)[C@@H](CC(=O)NCC13CC4CC(CC(C4)C1)C3)C[C@@H]2C(=O)N1CCN(C(=O)c2ccco2)CC1 | – | inconclusive [cytotoxic, single point]
48 | COCCNC(=O)C(=O)Nc1cccc(Br)c1 | inconclusive: 20.9% | –

Row | SMILES | activity, negative = toxicity | Potency
49 | COc1ccc(-c2nc(-c3cccs3)c(-c3cccs3)[nH]2)cc1OC | – | inconclusive [cytotoxic, single point]
50 | COc1ccccc1N1CCN(C(=O)c2cn(-c3ccccc3)nc2-c2cccnc2)CC1 | – | inconclusive [cytotoxic, single point]
51 | CSc1cccc(NC(=O)c2nnn(CC(=O)Nc3cc(C)cc(C)c3)c2N)c1 | – | inconclusive [cytotoxic, partial curve]
52 | CS(=O)(=O)c1ccc2nc(NC(=O)c3ccc(NS(=O)(=O)c4ccc(F)c(F)c4)cc3)sc2c1 | inactive: -0.324% | –
53 | COc1ccc(-c2ccnc(SCC(=O)N3CCN(c4ccccc4)CC3)n2)cc1 | inactive: 21.1% | –
54 | Cc1ccc(Cn2cc(/C=N/Nc3ccc([N+](=O)[O-])cn3)c3ccccc32)cc1 | – | inconclusive [cytotoxic, partial curve, poor fit]
55 | CCOC(=O)c1cnn(-c2ccc([N+](=O)[O-])cc2)c1N | inactive: 0.682% | –
56 | O=S(=O)(Nc1ccc(-c2ccc3nncn3n2)cc1)c1ccc(Cl)s1 | inactive: -1.71% | –
57 | Cc1ccc(/C=C/C(=O)Nc2nnc(SCc3ccc(C#N)cc3)s2)o1 | – | inconclusive [cytotoxic, partial curve]
58 | O=C(Nc1ccc(Br)cn1)c1ccc([N+](=O)[O-])o1 | – | active: 10.3 µM
59 | COc1cc(/C=C/C(=O)Nc2cc(C(F)(F)F)ccc2Cl)cc(OC)c1OC | – | inconclusive [cytotoxic, single point]
60 | O=C1C(=O)N(CCS(=O)(=O)c2ccccc2)c2ccc(Cl)cc21 | – | inconclusive [cytotoxic, single point]
61 | CCC(C)N(CCNC(=O)c1ccc2c(c1)NC(=O)c1ccccc1S2)C1CCCCC1 (stereo unspecified) | inconclusive: -7.62% [cytotoxic] | –
62 | NC(=O)c1c(NC(=O)c2ccccc2)sc2c1CCC2 | – | inconclusive [cytotoxic, single point]
63 | COCCCn1c(=N)c(C(=O)NCc2ccc3c(c2)OCO3)cc2c(=O)n3ccccc3nc21 | inactive: 9.65% | –
64 | O=C(NCc1cccs1)C1CCCN(C(=O)Nc2ccccc2)C1 (stereo unspecified) | – | inconclusive [cytotoxic, full curve]
65 | O=Cc1ccccc1OCCCOc1cccc2cccnc12 | – | inconclusive [cytotoxic, partial curve, poor fit]
66 | COC(=O)c1cc(NC(=O)c2ccc(Cn3cc(Cl)cn3)o2)cc(C(=O)OC)c1 | – | inconclusive [cytotoxic, single point]
67 | CCc1cc(-c2nnn(-c3cc(C(C)C)ccc3C)c2CC)ccc1-c1cn(CCc2c[nH]c3ccccc23)nn1 | inconclusive: -22.1% [cytotoxic] | –
68 | COc1ccccc1/C=N/NC(=O)c1csc(C)c1C | inactive: 21.4% | –
69 | CCOC(=O)C1=C(CSc2nc3c(cc2C#N)CCC3)OC(N)=C(C#N)C1c1ccccc1 (stereo unspecified) | – | inconclusive [cytotoxic, single point]
70 | COCCNC(=S)N/N=C(\C)c1ccc(C)c([N+](=O)[O-])c1 | inactive: -1.83% | –
71 | O=C(C[C@@H]1C/C=C/CC[C@@H](Cc2ccc(F)cc2)C(=O)OC[C@H](Cc2ccccc2)NC1=O)N[C@H](CO)Cc1ccccc1 | – | inconclusive [cytotoxic, single point]
